Screen size: about 420,000 compounds; about 64,000 (15%) were called active. This list was built around the results that the source calls inconclusive (neither active nor inactive); the mix of calls is not that of the screen. Calls follow the shape of the dose curve; as a rule, active = well fitted inhibition curve with a large enough effect; inconclusive = small, poorly fitted or top-dose-only effect; inactive = flat fitted curve, though single readings scatter. Potencies of inconclusive entries are left out as doubtful fits.
Assay: qHTS for Inhibitors of human tyrosyl-DNA phosphodiesterase 1 (TDP1): qHTS in cells in absence of CPT; also: nearly all actives have a fitted effect of over 55% in size
Details: DT40 Tdp1-/- hTDP1 cells, no CPT, ATP luminescence, 48 h; activity change, negative = growth inhibition: at 46.2 µM (top of the series) unless noted
Summary of the method: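 Seeded 400 DT40-hTDP1 cells/well (vehicle DMSO, no 20 nM CPT); pinned compounds; ≥48 hr at 37 °C; CellTiter-Glo luminescence as viability measure.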
% is scaled to controls: 0 for no effect and ±100 for the full control effect; potency is read from the fitted curve at half-maximal effect; tags tell the direction and shape of the fitted curve.

SMILES	activity change, negative = growth inhibition	Potency
COc1ccc(C(=O)c2sc3nc(-c4ccc(C)cc4)cc(C(F)(F)F)c3c2N)cc1	inactive: -19.6%	–
CC(C)CN1CCC(=O)N(CCN=[N+]=[N-])CC1	–	inactive
CCOC(=O)CNc1nc(Cl)nc(Nc2ccccc2)n1	inactive: 3.63%	–
CC(=O)c1c(C)[nH]c(C(=O)NCCc2c[nH]c3ccccc23)c1C	–	inconclusive [inhibitor, single point]
CC(C)(C)NC(=O)CN(C(=O)c1snc(C(=O)NC2CCCCC2)c1N)c1ccccc1F	–	active: 20.6 µM
O=C1C=C(c2cc(C(F)(F)F)cc(C(F)(F)F)c2)C[C@@H](c2ccc3c(c2)OCO3)C1	–	inconclusive [inhibitor, single point]
Fc1ccc(CNC(=S)Nc2ccc(Cl)cc2)cc1	–	inconclusive [inhibitor, single point]
O=C(N/N=C/c1cc(Br)cs1)c1c[nH]c2ccccc12	–	inconclusive [inhibitor, partial curve, poor fit]
CCOC(=O)C(CC)n1nc(C)c2c(C)n(-c3ccc(C)cc3)nc2c1=O (stereo not given)	–	active: 16.4 µM
CSc1ccc(S(=O)(=O)NCC(=O)OCC(=O)NCc2cccs2)cc1[N+](=O)[O-]	inactive: -19.3%	–
CC1(c2nnc(Cc3ccccc3)o2)CC(c2ccc(OC(F)(F)F)cc2)=NO1 (stereo not given)	–	inconclusive [inhibitor, single point]
O=C(CSc1ccc(-c2ccco2)nn1)NCc1ccc(F)cc1	inactive: -19.1%	–
NC(N)=NC1=NC(=O)C(Cc2ccccc2)S1 (stereo not given)	inactive: 6.14%	–
COc1ccc(/C=C/c2ccc3cccc(O)c3n2)c(OC)c1OC	–	active: 10.3 µM
O=C(Oc1ccc2ccc(O)cc2c1)c1ccccc1Cl	inactive: -13.5%	–
O=C(NCc1ccccc1)C1=C[C@H](c2ccc(Br)cc2)C[C@H](OCc2ccc(CO)cc2)O1	–	inconclusive [inhibitor, single point]
CCOC(=O)c1ccc(N2C(=O)c3n[nH]c(-c4cccs4)c3C2c2ccc(CC)cc2)cc1 (stereo not given)	–	active: 11.6 µM
CC(=O)c1cnc(Oc2cc(Cl)ccc2Cl)nc1C	inactive: 3.34%	–
O=S(=O)(Nc1ccc(F)c(Cl)c1)c1ccc(Br)s1	–	inconclusive [inhibitor, single point]
O=C(CSc1nnc(CNC(=O)c2ccccc2F)o1)Nc1cccc(C(F)(F)F)c1	inactive: 12%	–
COc1cc(N(C)C)c([N+](=O)[O-])cc1C(=O)NC(C)CNc1ccc([N+](=O)[O-])cc1Cl (stereo not given)	–	inconclusive [inhibitor, partial curve, poor fit]
Brc1cccc(CSc2nnc(-c3ccncc3)o2)c1	–	inconclusive [inhibitor, partial curve]
O=c1cnc2cnc(Oc3cccc(Cl)c3)nc2n1Cc1ccc(F)cc1	–	active: 23.1 µM
O=C(c1cn(C2CCCN(Cc3cc(Cl)ccc3O)C2)nn1)N1CCCCC1 (stereo not given)	inactive: -11.6%	–
COc1ccc(CN2CCN(C(=O)c3cccc4ccccc34)CC2)cc1Br	–	inconclusive [inhibitor, single point]

SMILES	activity change, negative = growth inhibition	Potency
O=C(OCC(=O)N1CCCc2ccccc21)c1cc(Cl)ccc1O	inactive: 12.6%	–
O=C1c2ccncc2C(=O)N1CO	inactive: -12.6%	–
CC1CCCCN1S(=O)(=O)c1ccc(S(=O)(=O)N2CCN(C)CC2)cc1 (stereo not given)	inactive: -6.64%	–
COc1ccc(N(C(=O)c2snc(C(N)=O)c2N)C(C(=O)NC2CCCCC2)c2ccc(C)o2)c(OC)c1 (stereo not given)	–	active: 20.6 µM
COC(=O)c1sccc1NC(=O)COc1ccc(C)cc1	inconclusive: -18.1% [inhibitor]	–
COc1ccc(N2CCN(C(=O)[C@@H](NC(=O)c3cc(OC)cc(OC)c3)C(C)C)CC2)cc1	–	active: 8.2 µM
Cc1cccc(N2CCN(C(=O)Cn3ncc4c5ccccc5n(C)c4c3=O)CC2C)c1 (stereo not given)	–	inconclusive [inhibitor, single point]
C=CCC1(CC=C)CCCN1C(=O)c1cc(COc2cccc(C(F)(F)F)c2)on1	–	active: 14.6 µM
Cc1ccccc1-n1nc(CO)c(C(=O)NCC(c2ccccc2)c2ccccc2)n1	–	active: 20.6 µM
O=C(Cn1ncc2c(=O)oc3ccccc3c21)NCc1cccnc1	–	active: 9.2 µM
COc1ccc(CCNC(=O)CCCn2c(=O)c3ccccc3n(Cc3ccccc3C#N)c2=O)cc1OC	inactive: -18.1%	–
Cc1ccc(NC(=S)NC(=O)c2ccc(Br)o2)c(C)c1	–	inconclusive [inhibitor, single point]
Cc1ccccc1N1C(=O)C2CCCN2C1=S (stereo not given)	–	inconclusive [inhibitor, single point]
CCCc1n[nH]c2c1/C(=N/O)CC(c1ccccc1)C2 (stereo not given)	–	inconclusive [inhibitor, single point]
CC(=O)C1=C(c2ccc(Cl)c(Cl)c2)N(C(C)=O)n2c(nnc2-c2ccccc2)S1	–	inconclusive [inhibitor, full curve]
CCN(C(=O)COc1ccc(C(=O)c2ccccc2)cc1)c1ccccc1	–	inconclusive [inhibitor, partial curve, poor fit]
O=C(N/N=C/C(Br)=C/c1ccccc1)c1ccccc1[N+](=O)[O-]	–	active: 13 µM
Cc1cc(C(=O)COC(=O)c2ccc3c(c2)NC(=O)CS3)c(C)n1CC1CCCO1 (stereo not given)	–	active: 16.4 µM
O=C(COCc1cc(-c2ccc(F)cc2)on1)Nc1cc(Cl)ccc1O	–	inconclusive [inhibitor, single point]
COc1ccc(CSc2nc(C)cc(C)c2S(C)(=O)=O)cc1	–	inconclusive [inhibitor, single point]
CCNc1nc(NCC)n2c(SCC(=O)Nc3cccc(Cl)c3)nnc2n1	–	inconclusive [inhibitor, single point]
NC(=O)N=Nc1c2[nH]c3ccccc3nc-2c2ccccc12	–	active: 8.2 µM
CCOc1ccccc1NC(=O)c1cccc(NC(=O)c2ccco2)c1	–	active: 1.64 µM
Cc1ncsc1CCSc1nc2ccccc2c(=O)n1C	–	active: 23.1 µM
O=C(N/N=C/c1cccnc1)c1ccc(O)cc1	–	inconclusive [inhibitor, full curve, poor fit]

— PubChem BioAssay AID686978 (National Center for Advancing Translational Sciences (NCATS), 2013)
